Measured values as given in paper PMC4336329 (PLoS ONE, 2015).
The whole screen tested about 310,000 compounds, of which about 14,000 (4.5%) showed an effect of 50% or more. The effect is printed as a negative number. This is one part of the list.

target: human ether-à-go-go-related gene (hERG) potassium channel (human, UniProt Q12809); assay: primary screen, population patch clamp on CHO cells stably expressing hERG
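Further: peak tail current of the secondary pulse compared with the same well before compound.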

Chain of human ether-à-go-go-related gene (hERG) potassium channel (Q12809 whole entry, looked up): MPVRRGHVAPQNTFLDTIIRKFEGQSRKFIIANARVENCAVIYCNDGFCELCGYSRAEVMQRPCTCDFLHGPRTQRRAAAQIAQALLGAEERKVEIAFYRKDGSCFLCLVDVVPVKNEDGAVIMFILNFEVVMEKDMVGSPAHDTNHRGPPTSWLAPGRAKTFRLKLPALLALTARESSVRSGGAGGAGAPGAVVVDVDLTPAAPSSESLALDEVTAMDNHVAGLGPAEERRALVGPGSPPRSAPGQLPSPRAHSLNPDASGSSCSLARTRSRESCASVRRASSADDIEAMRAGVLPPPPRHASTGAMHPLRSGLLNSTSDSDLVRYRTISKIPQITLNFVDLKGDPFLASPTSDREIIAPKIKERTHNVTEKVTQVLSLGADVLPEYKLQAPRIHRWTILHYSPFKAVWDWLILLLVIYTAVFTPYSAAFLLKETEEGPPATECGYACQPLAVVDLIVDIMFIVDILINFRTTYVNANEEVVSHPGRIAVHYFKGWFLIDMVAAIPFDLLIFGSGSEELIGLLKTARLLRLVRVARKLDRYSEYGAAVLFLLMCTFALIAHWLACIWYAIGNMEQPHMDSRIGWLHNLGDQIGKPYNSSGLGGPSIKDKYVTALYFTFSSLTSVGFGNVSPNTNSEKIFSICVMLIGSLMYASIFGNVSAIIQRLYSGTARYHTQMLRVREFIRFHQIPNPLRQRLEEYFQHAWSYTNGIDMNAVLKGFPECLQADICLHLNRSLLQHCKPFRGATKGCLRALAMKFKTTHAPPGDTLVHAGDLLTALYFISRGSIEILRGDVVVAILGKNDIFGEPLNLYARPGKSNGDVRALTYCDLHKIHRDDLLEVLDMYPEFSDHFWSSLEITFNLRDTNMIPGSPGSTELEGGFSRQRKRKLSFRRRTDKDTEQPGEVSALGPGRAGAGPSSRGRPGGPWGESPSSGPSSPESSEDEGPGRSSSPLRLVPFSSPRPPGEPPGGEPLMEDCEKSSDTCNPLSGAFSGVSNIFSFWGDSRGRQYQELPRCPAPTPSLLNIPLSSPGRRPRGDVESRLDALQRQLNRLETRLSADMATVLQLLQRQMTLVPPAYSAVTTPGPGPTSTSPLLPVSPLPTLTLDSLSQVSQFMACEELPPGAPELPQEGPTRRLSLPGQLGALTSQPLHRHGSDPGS

Row | Compound | hERG current change (%, negative = inhibition) at 10uM
1 | Cc1ccc(SCc2c(C(=O)N/N=C/c3ccc4c(c3)OCO4)nnn2-c2nonc2N)cc1 | 4.12%
2 | Cc1nc(SCC(=O)c2ccc(Cl)cc2)c([N+](=O)[O-])[nH]1 | -4.01%
3 | C/C(=N\OC(=O)c1ccccc1)c1c(C)nc2cc(C)ccn12 | -8.66%
4 | Cc1c(Cl)c(-c2n[nH]c(=S)n2-c2ccccc2)nn1C | 22.4%
5 | Cn1ncc(Br)c1C(=O)NC1CCCCC1 | 11.9%
6 | CC(c1ccccc1)N1C(=O)NC(NC(=O)C(C)(C)C)(C(F)(F)F)C1=O (centres unmarked) | 7.15%
7 | CCC(C)(C#CCN1CCCCC1)OCCC#N (centres unmarked) | 1.44%
8 | CN1CCN(c2ccc(Cl)cc2NC(=O)c2ccc([N+](=O)[O-])cc2)CC1 | -10.6%
9 | O=[N+]([O-])c1ccc(-c2cn(-c3ccccc3F)c(=S)[nH]2)cc1 | -3.28%
10 | C=CCOC(=O)/C(=C/c1cccnc1)NC(=O)c1ccccc1 | -27.4%
11 | COc1ccccc1/C=N/NC(=O)NC12CC3CC(CC(C3)C1)C2 | 22.3%
12 | O=C(N/N=C1/C(=O)c2cccc3cccc1c23)c1ccc(Cl)cc1 | 9.82%
13 | CCc1cc(=O)oc2cc(OCC(=O)N3CCC[C@H]3C(=O)O)ccc12 | 14.8%
14 | COc1ccc(NC(=O)c2cnc(NS(=O)(=O)c3ccccc3)nc2)cc1 | -25.8%
15 | NS(=O)(=O)c1ccc(CCNC(=O)CCC(=O)c2cccs2)cc1 | -4.56%
16 | CCCS(=O)(=O)c1c(S(=O)(=O)CCC)c2ccc(C(N)=O)cn2c1C(=O)c1ccc(OC)cc1 | -0.976%
17 | Nc1c(C(=O)NCc2ccc3c(c2)OCO3)nnn1CC(=O)Nc1ccc(Br)cc1 | 19%
18 | COc1ccccc1-n1cnnc1SCC(=O)NCc1cccs1 | 10.7%
19 | COC(=O)Cc1nc2ccccc2[nH]1.Cl | 11.8%
20 | Cl.Oc1ccc(CNC2CCCCC2)cc1 | -1.69%
21 | Cc1cc(NCc2ccco2)nc2cc(O)ccc12 | -20.7%
22 | Br.COc1ccccc1OCC(=O)NN1Cc2ccccc2C1=N | 1.99%
23 | COc1cccc(NC(=O)CN2C(=O)NC(C)(CCC(C)C)C2=O)c1 (centres unmarked) | 11.6%

Row | Compound | hERG current change (%, negative = inhibition) at 10uM
24 | COC(=O)c1ccc(Cn2nc(C)c(Cl)c2C)o1 | 8.75%
25 | O=C(NC1CCCC1)C(c1ccc(N2CCOCC2)cc1)N(C(=O)c1ccco1)c1ccccc1F (centres unmarked) | 26%
26 | CCCNC(=O)c1cc(OC)c(OC)cc1[N+](=O)[O-] | 5.78%
27 | CCCCN(C(=O)c1cc2ccccc2o1)c1c(N)n(CC(C)C)c(=O)[nH]c1=O | 5.2%
28 | CCCCCC(=O)Nc1ccc(S(=O)(=O)Nc2nccnc2OC)cc1 | -34.5%
29 | CC1=CC(=C(C#N)c2nc3ccccc3s2)C=C(C)N1Cc1ccco1 | -3.03%
30 | COc1cccc(C(=O)Nc2ccc(C(=O)c3ccncc3)cc2)c1 | -11.7%
31 | CC(C)CC(c1nnnn1Cc1ccccc1)N1CCN(C(=O)c2ccco2)CC1 (centres unmarked) | -63.4%
32 | CCc1cc2c(=O)c(-c3nc(C)cs3)coc2cc1OC(C)C(=O)NCCO (centres unmarked) | -1.02%
33 | Cc1nnc(SCC(=O)Nc2cc(Cl)ccc2Cl)n1CC1CCCO1 (centres unmarked) | -14.7%
34 | CN(C)S(=O)(=O)c1ccc(Cl)c(NC(=O)C2CCN(S(=O)(=O)c3cccs3)CC2)c1 | 6.76%
35 | Cc1nnc(SCC(=O)N2CCC(Cc3ccccc3)CC2)n(N)c1=O | -12%
36 | Cc1c(C(=O)N2CCC3(CC2)OCCO3)sc2ncnc(N(C)c3ccccc3)c12 | -16.8%
37 | CCSc1nnc(NC(=O)[C@H](C)N2C(=O)C3CC=CCC3C2=O)s1 (some centres unmarked) | -0.886%
38 | CC1Cc2nc(SCC(=O)Nc3ccc4c(c3)OCO4)n(-c3ccc(F)cc3)c(=O)c2S1 (centres unmarked) | -1.47%
39 | CC12COC3(C(=O)Nc4ccc([N+](=O)[O-])cc4)CC1CCC32C (centres unmarked) | -32.1%
40 | CN(Cc1nc2ccccc2c(=O)[nH]1)C(=O)c1ccc(S(=O)(=O)N(C)C)cc1 | 4.04%
41 | COC(=O)c1sc(NC(=O)CSc2nnnn2-c2ccc(C)cc2C)nc1C | 6.33%
42 | COc1ccc(CNC(=O)N2CCN(S(=O)(=O)c3ccc(C)cc3C)CC2)cc1 | 3.67%
43 | Cc1ccc(-c2csc3ncn(C(C)C(=O)O)c(=O)c23)cc1 (centres unmarked) | 10.6%
44 | O=C(COc1ccc(Br)cc1Cl)c1ccc[nH]1 | -16.6%
45 | NP(=O)(Oc1ccc(Cl)cc1)Oc1ccc(Cl)cc1 | -8.04%
46 | Cc1cc(CNC(=O)C2CCC(=O)N(CCc3ccc(Cl)cc3)C2)no1 (centres unmarked) | -39.7%

Row | Compound | hERG current change (%, negative = inhibition) at 10uM
47 | COc1ccc(CCN(Cc2ccccn2)C(=S)Nc2cccc(C)c2)cc1OC | -49.4%
48 | COc1cc(OC)cc(-n2nnnc2SCC(=O)Nc2ccc(C(C)=O)cc2)c1 | 8.96%
49 | Cn1c(C(=O)N[C@@H](C(=O)O)c2ccccc2)cc2cc(Cl)ccc21 | 25%
50 | Cn1ncc2c1ncn1nc(COc3ccc4ccccc4c3)nc21 | -2.36%
51 | CC(C)N(C(=O)CSc1nnc(CNc2ccc(F)cc2)o1)C(C)C | -10.3%
52 | O=C(NC1CCCC1)C(c1cccnc1)N(C(=O)c1csnn1)C1CC1 (centres unmarked) | 4.97%
53 | COC(=O)c1ccccc1NS(=O)(=O)c1ccc2c(c1)oc(=O)n2C | 6.16%
54 | O=C(N/N=C/c1cccs1)c1n[nH]c2c1CCC2 | 10.1%
55 | C=C(c1ccccc1Cl)[n+]1ccccc1.F[B-](F)(F)F | 22.5%
56 | C=CCNc1sc(C(=O)c2ccccc2)c(N)c1C#N | -4.18%
57 | COc1ccc(Cl)cc1NC(=O)c1oc(C)nc1C | 2.05%
58 | Cc1cccc(Sc2c([N+](=O)[O-])ncn2C)n1 | -2.61%
59 | O=C(O)CCSc1nnc(-c2cccnc2)n1-c1ccccc1 | 11.2%
60 | O=c1c(Oc2ccccc2F)coc2cc(OCc3cnn(-c4ccccc4)c3)ccc12 | -55%
61 | O=C1CN(C(=O)CC2c3ccccc3-c3ccccc32)CC(=O)N1 | 0.273%
62 | O=C(NCC1CCCCC1)c1cc2ccccc2cc1O | -8.9%
63 | COc1ccc(CCNc2nc(=S)[nH]c3cc(OC)c(OC)cc23)cc1OC | 8.84%
64 | CCc1ccc(OCCNC(=O)c2ccccc2SCc2ccccc2)cc1 | 4.85%
65 | CCC(C)(C)n1nnnc1C(c1cc2cc(C)ccc2[nH]c1=O)N1CCCc2ccccc21 (centres unmarked) | -9.91%
66 | COC(=O)c1ccc(NC(=O)CCN2C(=O)CSC2=O)cc1 | 1.95%
67 | Cc1ccc(NC(=O)c2ccc([N+](=O)[O-])cc2)cc1S(=O)(=O)N(C)C | -39.6%
68 | COc1ccc(C(=O)c2c3ccccc3[n+]([O-])n2CCC(N)=O)cc1 | 13.1%
69 | COc1ccc(NC(=O)Cn2c(=O)n(CC3CCCO3)c(=O)c3cc(OC)c(OC)cc32)cc1OC (centres unmarked) | -10.8%

Row | Compound | hERG current change (%, negative = inhibition) at 10uM
70 | NC1=C(c2ccc(F)cc2)C(=O)CS1 | 11%
71 | COc1ccc(N(C(=O)c2ccco2)C(C(=O)NC2CCCC2)c2ccc(N(C)C)cc2)cc1OC (centres unmarked) | 4.42%
72 | CC1Cc2ccccc2N1C(=O)CCS(=O)(=O)c1cccc2nonc12 (centres unmarked) | -1.46%
73 | CCCCCC1CC(/C(C)=N/NC(N)=O)OC1=O (centres unmarked) | -7.05%
74 | O=C(O)C(C(=O)/C=C/c1ccco1)=C1SCCS1 | 10.4%
75 | Cc1ccc(-n2nnc(-c3cnc4ccccc4c3)n2)cc1 | 21.7%
76 | O=C1CC(c2ccco2)Sc2ccccc2N1 (centres unmarked) | 0.559%
77 | COC(=O)c1ccccc1NC(=O)c1cc(-c2ccc(C)cc2)on1 | -6.7%
78 | CCn1c(SCC(=O)NC2CCCCC2)nnc1-c1ccccc1F | 8.53%
79 | O=S1(=O)CCOCCCN1Cc1ccccc1F | 18.1%
80 | COc1cccc(CC2(CO)CCCN(Cc3cn[nH]c3C3CCCCC3)C2)c1 (centres unmarked) | -45.1%
81 | Cc1cc(OCC(=O)NCC(c2ccc(F)cc2)N2CCOCC2)ccc1Cl (centres unmarked) | -38.6%
82 | CCCC(=O)N(CCN1CCOCC1)c1nc2c(F)cc(F)cc2s1.Cl | -26.6%
83 | COC(=O)C1CCN(C(=O)CSc2nc3ccc(OC)cc3[nH]2)CC1 | 28.1%
84 | CN=C1c2cc3cc(OC)ccc3n2CCN1C.Cl | -53%
85 | O=C(COC(=O)COc1ccc(Br)cc1)Nc1ccc2c(c1)OCCO2 | 19.3%
86 | CC(C)N1CCC(=NNc2ccc([N+](=O)[O-])cc2S(=O)(=O)N2CCOCC2)CC1 | -44.7%
87 | O=C(N/N=C/c1ccco1)c1cccc(NC(=O)c2ccccc2Cl)c1 | -12.5%
88 | CSc1ccc(CN(C)C(C)C(=O)Nc2ccc(F)c(F)c2F)cc1 (centres unmarked) | 15.3%
89 | O=C1CSC(=S)N1c1ccc(F)c(Cl)c1 | 9.23%
